{"source": "PubChem BioAssay AID540317", "about": "(National Center for Advancing Translational Sciences (NCATS), 2011)", "note": "Values joined by “and” are separate entries in the source; they are usually repeats but may differ in a detail not shown here. Equal entries are not always repeated. The campaign covered roughly 390,000 compounds. About 2,200 (0.56%) were called active. Inconclusive results, whose numbers are uncertain, are shown with a selection of clear calls. Calls come from the whole dose curve; as a rule, active = well fitted inhibition curve with a large enough effect; inconclusive = small, poorly fitted or top-dose-only effect; inactive = no such curve, though single readings can be large or run the other way. Potencies beside an inconclusive call are fits to weak or partial responses and may not hold up. Potency is the fitted concentration of half-maximal effect; tags give direction and shape of the fitted curve.", "data": [{"target": "Chromobox protein homolog 1 (Homo sapiens) (UniProt P83916)", "sequence (P83916 whole entry, looked up)": "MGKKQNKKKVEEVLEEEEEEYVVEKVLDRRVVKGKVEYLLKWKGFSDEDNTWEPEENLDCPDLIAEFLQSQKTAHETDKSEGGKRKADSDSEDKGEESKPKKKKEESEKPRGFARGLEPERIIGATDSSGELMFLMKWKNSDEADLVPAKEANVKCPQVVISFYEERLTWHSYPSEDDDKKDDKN", "experiment": "HTS for Inhibitors of HP1-beta Chromodomain Interactions with Methylated Histone Tails; note: nearly all actives have a fitted effect of over 70% in size", "settings": "AlphaScreen HP1-beta / biotin-H3K9me3 peptide binding; series mostly up to 114 µM", "summary_of_the_method": "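HP1-beta protein (50 nM final) preincubated 30 min at room temperature with biotinylated H3(1-18)K9me3 peptide (50 nM) in PBS pH 7.4, 0.01% Tween-20, then compound added for 30 min. AlphaScreen streptavidin donor/nickel chelate acceptor beads (10 ug/mL final), 30 min dark, luminescence read.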", "values": [{"smiles": "O=C(NC(NC(=S)Nc1ccccc1C(=O)O)C(Cl)(Cl)Cl)c1ccccc1", "note": "(stereo not drawn)", "Potency": "inconclusive: 7.94 µM [inhibitor, full curve]"}, {"smiles": "C=CCOc1ccccc1CN1CCCN(C)CC1", "Potency": "inconclusive: 15.8 µM [inhibitor, full curve, poor fit]"}, {"smiles": "CCCc1cc(=O)[nH]c(SCC(=O)NC2CC2)n1", "Potency": "inactive"}, {"smiles": "COc1cc(C(C)=O)ccc1OCCN1CCC(Cc2ccccc2)CC1", "Potency": "active: 44.7 µM"}, {"smiles": "CCc1c(C)sc(NC(=O)c2ccco2)c1C(=O)N1CCOCC1", "Potency": "inconclusive: 44.7 µM [inhibitor, partial curve]"}, {"smiles": "CCCOc1ccc(CNCCCOCC)cc1OC", "Potency": "inconclusive: 63.1 µM [inhibitor, single point]"}, {"smiles": "CCn1c(SCC(=O)Nc2ccc(OCc3ccccc3)cc2)nnc1-c1ccco1", "Potency": "inconclusive: 17.8 µM [inhibitor, partial curve, poor fit]"}, {"smiles": "Cc1ccc(-c2csc(Nc3ccc(S(N)(=O)=O)cc3)n2)o1", "Potency": "inconclusive: 56.2 µM [inhibitor, single point]"}, {"smiles": "CCCOc1ccccc1C1CC(=O)Nc2cc3c(cc21)OCO3", "note": "(stereo not drawn)", "Potency": "inconclusive: 79.4 µM [inhibitor, single point]"}, {"smiles": "CN(C)c1ccc(/C=C2\\CCC/C(=C\\c3ccccc3)C2=O)cc1", "Potency": "inactive"}, {"smiles": "COc1ccc(N=C2S/C(=C\\c3ccc(OCC(=O)O)cc3)C(=O)N2CCc2c[nH]c3ccccc23)cc1", "Potency": "active: 17.8 µM"}, {"smiles": "COc1ccc(C(=O)OCc2cc(=O)n3nc(-c4cccs4)sc3n2)cc1", "Potency": "inactive"}, {"smiles": "O=C(O)C1Cc2ccccc2CN1C(=O)CCl", "note": "(stereo not drawn)", "Potency": "inactive"}, {"smiles": "CC1CCCC(N2CCN(C(=O)c3ccc(F)cc3)CC2)C1", "note": "(stereo not drawn)", "Potency": "inconclusive: 31.6 µM [inhibitor, partial curve]"}, {"smiles": "S=C(c1ccccc1)N1CCN(c2ccccc2)CC1", "Potency": "inconclusive: 44.7 µM [inhibitor, partial curve]"}, {"smiles": "Cc1ccc(C2(C)NC(=O)N(CC(=O)Nc3nc(-c4ccccn4)cs3)C2=O)cc1", "note": "(stereo not drawn)", "Potency": "active: 31.6 µM"}, {"smiles": "C(=N\\N1CCN(C(c2ccccc2)c2ccccc2)CC1)/c1ccc2c(c1)OCO2", "Potency": "inconclusive: 70.8 µM [inhibitor, partial curve]"}, {"smiles": "CCOC(=O)N1CCN(C(=O)Cc2ccc(C)cc2)CC1", "Potency": "inconclusive: 25.1 µM [inhibitor, partial curve, poor fit]"}, {"smiles": "O=C(Nc1ccc(S(=O)(=O)Nc2nccs2)cc1)c1cc(-c2ccccn2)nc2ccccc12", "Potency": "inconclusive: 44.7 µM [inhibitor, partial curve, poor fit]"}, {"smiles": "Cc1cc(C)n(-c2cc(N3CCN(C(=O)c4ccc(C(C)(C)C)cc4)CC3)ccc2[N+](=O)[O-])n1", "Potency": "inconclusive: 31.6 µM [inhibitor, single point]"}, {"smiles": "C=CC1=C(C(=O)O)N2C(=O)[C@@H](NC(=O)/C(=N/OCC(=O)O)c3csc(N)n3)[C@H]2SC1", "Potency": "active: 14.1 µM"}, {"smiles": "O=Cc1c(NC2CCCCC2)c2ccccc2[nH]c1=O", "Potency": "inactive"}, {"smiles": "CCCCCCCc1c(C#N)c(N)[nH]c(=S)c1C#N", "Potency": "inactive"}, {"smiles": "CCCSc1nc2sc3c(c2c(=O)n1-c1ccc(OC)cc1)CCN(C)C3", "Potency": "inconclusive: 79.4 µM [inhibitor, partial curve]"}, {"smiles": "Cc1ccc2nc(COC(=O)CNC(=O)c3ccccc3)cn2c1", "Potency": "inactive"}, {"smiles": "CN(C)c1nc(Cl)nc(NCCOc2ccccc2)n1", "Potency": "inactive"}, {"smiles": "Cc1cc(Nc2ccc(C)c(Cl)c2)n2nc(Cc3ccccc3)nc2n1", "Potency": "inactive"}, {"smiles": "COc1cccc(CN(C(=O)Cn2nnc(-c3ccccc3F)n2)C(C(=O)NC(C)(C)C)c2ccncc2)c1", "note": "(stereo not drawn)", "Potency": "inconclusive: 44.7 µM [inhibitor, partial curve]"}, {"smiles": "CC1(C)SC2C(C(=O)O)N=C(Cc3ccccc3)N2C1C(=O)O", "note": "(stereo not drawn)", "Potency": "inactive"}, {"smiles": "CC(=O)Nc1ccc(N=C(C2=C(O)c3ccccc3C2=O)c2ccccc2)cc1", "Potency": "inconclusive: 44.7 µM [inhibitor, partial curve]"}, {"smiles": "CCOCCCNCc1ccc(Cl)cc1", "Potency": "inconclusive: 50.1 µM [inhibitor, partial curve, poor fit]"}, {"smiles": "CCOC(=O)C1=C(O)/C(=C/c2cn(CC(=O)N3CCCC3)c3ccccc23)SC1=Nc1ccccc1", "Potency": "inactive"}, {"smiles": "Cc1cccc(N2CCN(C(=O)c3cccn4c(=O)c5cc(Cl)ccc5nc34)CC2C)c1", "note": "(stereo not drawn)", "Potency": "inconclusive: 79.4 µM [inhibitor, partial curve, poor fit]"}, {"smiles": "CCOC(=O)c1ccc(N2C(=O)CC(SCC(=O)Nc3ccc(S(N)(=O)=O)cc3)C2=O)cc1", "note": "(stereo not drawn)", "Potency": "inactive"}, {"smiles": "C[C@@H]1O[C@@H](O[C@@H]2[C@@H](O)[C@H](OCCc3ccc(O)c(O)c3)O[C@H](CO)[C@H]2OC(=O)/C=C/c2ccc(O)c(O)c2)[C@H](O)[C@H](O)[C@H]1O", "Potency": "inconclusive: 22.4 µM [inhibitor, full curve]"}, {"smiles": "CCOc1cccc(OCCCCN2CCCCC2)c1", "Potency": "inconclusive: 14.1 µM [inhibitor, full curve, poor fit]"}, {"smiles": "CN(Cc1cccc(Cl)c1)C(=O)C1CCN(C(=O)Nc2ccccc2)CC1", "Potency": "inconclusive: 89.1 µM [inhibitor, single point]"}, {"smiles": "COc1ccc(C(=O)N/N=C(\\C)CC(=O)Nc2ccc(N(C)C)cc2)c(OC)c1", "Potency": "inconclusive: 79.4 µM [inhibitor, single point]"}, {"smiles": "O=C1c2cccnc2C(=O)N1Cc1ccccc1", "Potency": "inactive"}, {"smiles": "Cc1ccc2[nH]c(-c3cccc(N)c3)cc2c1", "Potency": "inconclusive: 79.4 µM [inhibitor, single point]"}, {"smiles": "COc1ccc(OCCNc2cc(Cl)ccc2[N+](=O)[O-])cc1", "Potency": "inconclusive: 35.5 µM [inhibitor, partial curve]"}, {"smiles": "CCCCCn1c(N)c(-c2nc3ccccc3s2)c2c([N+](=O)[O-])nn(CC)c(=O)c21", "Potency": "inconclusive: 7.08 µM [inhibitor, full curve]"}, {"smiles": "Cc1cc(/C=C2/SC(=S)N(c3cccc(C(F)(F)F)c3)C2=O)c(C)n1-c1cccnc1", "Potency": "inconclusive: 7.08 µM [inhibitor, full curve]"}, {"smiles": "O=[N+]([O-])c1ccc(/C=N/NC(=S)Nc2ccccc2C(F)(F)F)o1", "Potency": "inconclusive: 28.2 µM [inhibitor, single point]"}, {"smiles": "O=C(CCl)NNc1cccc(Cl)n1", "Potency": "inconclusive: 63.1 µM [inhibitor, single point]"}, {"smiles": "COc1ccc(N2CCN(c3c(S(=O)(=O)c4ccccc4)cnc4ccc(OC)cc34)CC2)cc1", "Potency": "inconclusive: 14.1 µM [inhibitor, full curve]"}, {"smiles": "Fc1ccccc1CN1CCCCCCC1", "Potency": "inconclusive: 50.1 µM [inhibitor, partial curve]"}, {"smiles": "Cc1ccc(NC(=O)COc2ccccc2)cc1Cl", "Potency": "inactive"}, {"smiles": "CC1(C)CC(=O)C2=C(C1)NC(SCC(N)=O)=C(C#N)C21CCCCC1", "Potency": "inactive"}, {"smiles": "Cc1ccc(N2C(=O)C3C4C=CC(CNC(=S)N5CCN(c6ccccn6)CC5)(O4)C3C2=O)cc1", "note": "(stereo not drawn)", "Potency": "inconclusive: 25.1 µM [inhibitor, full curve]"}, {"smiles": "COc1ccc2nc(SCC(=O)N3CCN(c4ccc(F)cc4)CC3)c(C#N)cc2c1", "Potency": "inconclusive: 6.31 µM [inhibitor, single point]"}, {"smiles": "Cc1ccc(/C=N/Nc2ccc(Cl)c(C(=O)O)c2)s1", "Potency": "inactive"}, {"smiles": "COc1ccc(OC)c(NC2=C(c3ccccc3)C(=O)c3ccccc32)c1", "Potency": "active: 12.6 µM"}, {"smiles": "COc1ccc(N2CCN(C(=O)c3cc4c(-c5ccccc5F)nn(C)c4s3)CC2)cc1", "Potency": "inconclusive: 12.6 µM [inhibitor, full curve, poor fit]"}, {"smiles": "FC(F)(F)c1cccc(N2CCN(Cc3ccoc3)CC2)c1", "Potency": "inconclusive: 79.4 µM [inhibitor, single point]"}, {"smiles": "CN(CC(=O)Nc1ccccc1C(F)(F)F)C(=O)C1CCN(S(=O)(=O)c2ccc3c(c2)OCCO3)CC1", "Potency": "inactive"}, {"smiles": "O=C1SC(SC(=Nc2ccccc2)Nc2ccccc2)C(=O)N1c1ccccc1", "note": "(stereo not drawn)", "Potency": "inconclusive: 15.8 µM [inhibitor, partial curve, poor fit] and inconclusive: 11.2 µM [inhibitor, partial curve, poor fit]"}, {"smiles": "Cc1ccc(CSC2=NCCN2C(=O)C(C)Oc2ccccc2)cc1", "note": "(stereo not drawn)", "Potency": "inconclusive: 89.1 µM [inhibitor, single point]"}, {"smiles": "Cc1cc(C)n(CCc2nc(-c3ccco3)cs2)n1", "Potency": "inconclusive: 56.2 µM [inhibitor, partial curve]"}, {"smiles": "CSc1cccc(NC(=O)COc2ccccc2)c1", "Potency": "inconclusive: 7.08 µM [inhibitor, single point]"}, {"smiles": "COc1ccc2[nH]c3c(=O)n(CCCCC(=O)NCCC(C)C)c(=S)[nH]c3c2c1", "Potency": "inactive"}, {"smiles": "CCN1/C(=C/c2ccc3cc(C)ccc3[n+]2CC)Sc2cc(C)c(C)cc21", "Potency": "inconclusive: 70.8 µM [inhibitor, single point]"}, {"smiles": "CC(=O)N1CCN(C(=S)c2ccc(N(C)C)cc2)CC1", "Potency": "inconclusive: 11.2 µM [inhibitor, full curve]"}, {"smiles": "COC(=O)c1ccc(NC(=O)CSc2nc(=O)n(Cc3ccco3)c3c2CCC3)cc1", "Potency": "inactive"}, {"smiles": "O=C1CSc2cc(Cl)ccc2N1", "Potency": "inconclusive: 35.5 µM [inhibitor, partial curve]"}, {"smiles": "O=C1OC(/C(=C\\Nc2cc(Cl)ccc2O)[N+](=O)[O-])c2ccccc21", "note": "(stereo not drawn)", "Potency": "inconclusive: 50.1 µM [inhibitor, partial curve]"}, {"smiles": "Cc1cc(OCCN2CCCC2)ccc1C(C)C", "Potency": "inconclusive: 10 µM [inhibitor, full curve, poor fit]"}, {"smiles": "CN(C)c1ccc(N=Nc2ccccc2C(=O)OCC(=O)NCC2CCCCC2)cc1", "Potency": "inconclusive: 8.91 µM [inhibitor, full curve, poor fit]"}]}]}
